The campaign covered roughly 310,000 compounds. About 14,000 (4.5%) showed an effect of 50% or more. The effect is printed as a negative number. The list shows a part of the results.
target: human ether-à-go-go-related gene (hERG) potassium channel (human, UniProt Q12809); experiment: primary screen, population patch clamp on CHO cells stably expressing hERG
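Further: peak tail current of the secondary pulse compared with the same well before compound.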

human ether-à-go-go-related gene (hERG) potassium channel, sequence (Q12809 whole entry, looked up): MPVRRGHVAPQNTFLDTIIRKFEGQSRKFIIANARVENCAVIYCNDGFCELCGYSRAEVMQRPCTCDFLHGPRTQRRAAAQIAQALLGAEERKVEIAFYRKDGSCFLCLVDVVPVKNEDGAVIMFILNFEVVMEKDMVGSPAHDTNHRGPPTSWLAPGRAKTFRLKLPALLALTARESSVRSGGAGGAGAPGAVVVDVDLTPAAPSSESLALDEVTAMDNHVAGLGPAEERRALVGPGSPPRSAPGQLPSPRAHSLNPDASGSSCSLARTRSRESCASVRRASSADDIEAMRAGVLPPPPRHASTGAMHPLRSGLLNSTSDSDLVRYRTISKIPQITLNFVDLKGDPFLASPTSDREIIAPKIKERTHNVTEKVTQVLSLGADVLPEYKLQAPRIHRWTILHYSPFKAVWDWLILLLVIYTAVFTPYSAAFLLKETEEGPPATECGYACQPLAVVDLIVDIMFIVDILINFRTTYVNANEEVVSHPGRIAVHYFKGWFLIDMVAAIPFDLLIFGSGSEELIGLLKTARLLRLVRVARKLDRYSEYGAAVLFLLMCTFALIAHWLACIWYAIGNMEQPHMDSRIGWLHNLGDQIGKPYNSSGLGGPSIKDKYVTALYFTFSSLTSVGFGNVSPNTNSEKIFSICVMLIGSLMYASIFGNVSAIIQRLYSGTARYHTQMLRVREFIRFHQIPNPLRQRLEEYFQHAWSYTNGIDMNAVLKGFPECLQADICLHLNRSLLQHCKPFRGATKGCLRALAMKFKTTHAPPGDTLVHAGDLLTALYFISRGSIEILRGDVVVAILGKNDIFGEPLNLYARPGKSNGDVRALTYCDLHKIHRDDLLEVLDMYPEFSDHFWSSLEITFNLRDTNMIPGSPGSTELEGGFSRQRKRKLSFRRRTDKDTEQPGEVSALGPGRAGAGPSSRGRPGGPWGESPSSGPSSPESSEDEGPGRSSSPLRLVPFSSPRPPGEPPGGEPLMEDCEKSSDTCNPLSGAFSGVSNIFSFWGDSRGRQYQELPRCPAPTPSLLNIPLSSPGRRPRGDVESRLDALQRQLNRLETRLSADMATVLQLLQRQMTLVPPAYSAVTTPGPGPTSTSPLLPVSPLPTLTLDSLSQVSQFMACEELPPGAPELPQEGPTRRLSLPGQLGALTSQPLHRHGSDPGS

| SMILES | hERG current change (%, negative = inhibition) at 10uM |
| --- | --- |
| CC1(C)CN=C(N(Cc2ccccc2)C(=O)Nc2ccccc2)S1 | 5.38% |
| Cc1oc(-c2ccccc2)cc1C(=O)NCc1ccncc1 | 4.82% |
| COc1ccc(NC2CCCN(C(=O)CCOc3ccccc3)C2)cc1 (stereo not shown) | -17.1% |
| COc1cc(CNCc2cccc(OC)c2OC)cc(OC)c1.O=C(O)C(=O)O | 6.42% |
| O=C(COc1ccc(C(=O)c2ccc(F)cc2)cc1)NCc1ccc(F)cc1 | 4.49% |
| Cc1ccc(S(=O)(=O)c2ccc(Oc3ccccc3)cc2)cc1 | 17.3% |
| COc1ccc(CN2CCNC(=O)C2CC(=O)NCCCC2CCCC2)c(C)c1C (stereo not shown) | 5.39% |
| Cc1cccc(NC(=O)CSc2nnc3ccc(-c4ccccn4)nn23)c1 | -2.59% |
| COC(=O)CSc1snnc1-c1ccc(Cl)cc1Cl | -2.62% |
| COC(=O)NC(NS(=O)(=O)c1ccccc1)(C(=O)OC)C(F)(F)F (stereo not shown) | 3.94% |
| COc1ccccc1NS(=O)(=O)c1cc(C(=O)NCc2ccncc2)ccc1C | -28.8% |
| C=CCn1c(=N)c(C(=O)NCCCOC)cc2c(=O)n3cc(C)ccc3nc21 | -57.3% |
| COc1cc(OC)cc(C(=O)OCC(=O)c2cc(C)n(CC3CCCO3)c2C)c1 (stereo not shown) | -39% |
| COc1ccc(-c2[nH]c(-c3ccc(F)cc3)nc2SCC(=O)NCc2ccco2)cc1OC | 18.8% |
| Brc1ccc(Sc2cnc3ccccc3n2)cc1 | 5.28% |
| COc1ccc([C@H]2CC(=O)C=C(c3cccc(OC(F)(F)F)c3)C2)cc1 | 5.2% |
| OCC1(Cc2ccc(Cl)cc2)CCN(Cc2ccccc2F)CC1 | -69.2% |
| CCOC(=O)Nc1cccc(NC(=O)c2ccccc2F)c1 | 7.84% |
| CCCN(CC(=O)Nc1cc(Cl)ccc1Cl)C(=O)c1ccc(N2CCCC2=O)cc1 | -33% |
| O=C(Nc1cc2c3c(c1)CC(=O)N3CCC2)c1ccc(Br)o1 | -34.3% |
| O=C(NC1CC(=O)N(c2ccccc2)C1)C(=O)c1c[nH]c2ccccc12 (stereo not shown) | -11.1% |
| S=C(Nc1ccc(Nc2ccccc2)cc1)N1CCN(c2ncccn2)CC1 | 19.9% |

| SMILES | hERG current change (%, negative = inhibition) at 10uM |
| --- | --- |
| COc1ccc(/C=C(/NC(=O)c2cccc([N+](=O)[O-])c2)C(=O)O)cc1OC | 13.2% |
| CCN1CCN(S(=O)(=O)c2cc(OC)c(Cl)cc2OC)CC1 | 2.38% |
| O=C(OCc1nc2ccccc2s1)C1CCN(C2=NS(=O)(=O)c3ccccc32)CC1 | -46.1% |
| Cc1ccc(C(=O)N/C(=C/c2ccco2)C(=O)OCN2C(=O)c3ccccc3C2=O)cc1 | -34.8% |
| C=C(C)C(=O)Oc1ccc(N2C(=O)CCC2=O)cc1 | 7.72% |
| Cc1ccc(S(=O)(=O)N2CCCC2CNC(=O)c2ccccc2)cc1 (stereo not shown) | -9.34% |
| CC(=O)N1C=CN(C(C)=O)C(c2cn(C)c3ccccc23)C1c1cn(C)c2ccccc12 (stereo not shown) | -15.5% |
| CCOC(=O)c1[nH]c(C)c(/C(O)=C2\C(=O)C(=O)N(CCN(C)C)C2c2cccc(OC)c2OC)c1C (stereo not shown) | 18% |
| O=C(O)c1ccc(Cl)c(S(=O)(=O)NCc2cccnc2)c1 | 11% |
| CS(=O)(=O)Nc1ccccc1C(=O)OCC(=O)N1CCC(c2ccccc2)=N1 | -18.1% |
| CSc1ccccc1-c1nnc(-c2ccc(Cl)cc2)o1 | -2.93% |
| COc1ccc(/C=N/Nc2ncnc3c2[nH]c2ccccc23)c(OC)c1OC | -5.02% |
| COc1ccc(S(=O)(=O)N/N=c2\oc3c(OC)cccc3cc2S(=O)(=O)c2ccc(C)cc2)cc1OC | 13.2% |
| COCCN(CC(=O)NC1CCCCC1)C(=O)CSc1nc2ccccc2o1 | 1.81% |
| COc1cccc(N2CCN(CC(=O)NC(=O)NCc3ccco3)CC2)c1 | 10.2% |
| Cc1ccc(C2CC(c3cccs3)=NN2C(=O)CSC2=NN3CCCC(=O)N=C3S2)cc1 (stereo not shown) | -24.2% |
| Cc1cc(C)cc(NC(=O)Nc2ccc3ccccc3n2)c1 | 18.3% |
| Cc1ccccc1OCC(=O)NNC(=O)Nc1ccc(Cl)cc1 | 0.251% |
| CCOC(=O)CCNC(=O)CCc1nnc(CCCc2ccccc2)o1 | 14.3% |
| COc1ccc(NC(=O)NNC(=O)c2ccc(Cl)cc2Cl)cc1OC | 13% |
| CCCc1c(C)nc2ccc(OC)cc2c1SCCC(=O)O | 10.4% |

From paper PMC4336329 (PLoS ONE, 2015)
